In article PMC8242001 one finds binding data, which are given here for two molecules.

Results are given in words; binding and its absence hold for the method and conditions named. In cells and extracts the contact can be indirect. Some results given as binding are weak or reduced against the parent protein; the word gives no strength. Sequences can lack the tags named with a protein.

Assay [1] concerns the target T1, Caf20-FLAG (wild type CAF20, C-terminally tagged with two copies of the Flag epitope) (S. cerevisiae) (UniProt P12962).
T1 sequence: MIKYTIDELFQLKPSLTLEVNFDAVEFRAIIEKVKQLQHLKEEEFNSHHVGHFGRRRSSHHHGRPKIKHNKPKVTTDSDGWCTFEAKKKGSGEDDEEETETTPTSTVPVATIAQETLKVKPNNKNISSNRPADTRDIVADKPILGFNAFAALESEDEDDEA
As to the kind of experiment: cross-linking; MBS on cell extracts from untagged, Flag-, Myc- and TAP-tagged Caf20 strains; shift of the major cross-linked bands compared between the tags.

Assay [2] concerns the target T1, Caf20-FLAG (wild type CAF20, C-terminally tagged with two copies of the Flag epitope) (S. cerevisiae). As to the kind of experiment: co-IP; Caf20-FLAG plasmids expressed in a strain whose endogenous CAF20 is tagged with 9xMyc; αFlag IP, pellets probed for Caf20-myc.
For assay [3] the target is unchanged. As to the kind of experiment: cross-linking; whole cell extracts from Caf20-FLAG cells treated with BMH, MBS or DSS (0.5, 1 or 2 mM); SDS-PAGE and western blots with Flag, eIF4G and eIF4E antibodies. (In western blotting, separated proteins are transferred to a membrane and probed.)
The target of assay [4] is T2, Caf20^m2-FLAG (Y4A, L9A) (S. cerevisiae) (UniProt P12962).
T2 sequence: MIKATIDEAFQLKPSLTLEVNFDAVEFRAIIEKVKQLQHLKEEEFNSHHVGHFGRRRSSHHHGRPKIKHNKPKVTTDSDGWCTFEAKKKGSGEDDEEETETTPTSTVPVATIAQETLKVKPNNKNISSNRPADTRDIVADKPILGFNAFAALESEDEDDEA
Put plainly: co-IP; Caf20-FLAG held on anti-Flag M2 magnetic beads from yeast total cell extract; IP lysis buffer 30 mM HEPES-KOH pH 7.5, 10% glycerol, 1 mM TCEP with 100 mM KCl (low salt); 1-2 h at 4 °C; eluted with 3X Flag peptide; western blot for native eIF4E.

Assay [5] deals with T3, Caf20^∆A-FLAG (S. cerevisiae) (UniProt P12962).
T3 sequence: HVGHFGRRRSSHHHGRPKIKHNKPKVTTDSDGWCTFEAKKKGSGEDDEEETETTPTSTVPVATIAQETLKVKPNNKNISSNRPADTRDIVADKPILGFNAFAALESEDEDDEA
Described as above.

Assay [6] has as its target T1, Caf20-FLAG (wild type CAF20, C-terminally tagged with two copies of the Flag epitope) (S. cerevisiae). Described as above.
Assay [7] addresses T2, Caf20^m2-FLAG (Y4A, L9A) (S. cerevisiae). As to the kind of experiment: co-IP; as the low-salt Flag IP, but with high salt buffer (1 M KCl); Caf20-FLAG held on anti-Flag M2 magnetic beads from yeast total cell extract; eluted with 3X Flag peptide; western blot for native eIF4E.
Assay [8] has as its target T3, Caf20^∆A-FLAG (S. cerevisiae). Described as above.
Assay [9] deals with T1, Caf20-FLAG (wild type CAF20, C-terminally tagged with two copies of the Flag epitope) (S. cerevisiae). The assay is described as above.

B1: Caf20-FLAG (wild type CAF20, C-terminally tagged with two copies of the Flag epitope) (protein, UniProt P12962 1-161)
chain: MIKYTIDELFQLKPSLTLEVNFDAVEFRAIIEKVKQLQHLKEEEFNSHHVGHFGRRRSSHHHGRPKIKHNKPKVTTDSDGWCTFEAKKKGSGEDDEEETETTPTSTVPVATIAQETLKVKPNNKNISSNRPADTRDIVADKPILGFNAFAALESEDEDDEA
On to B1, for which the binding result in assay [1] and in assay [2] was “no binding” each time.

B2: eIF4E (native, yeast) (protein, UniProt P07260 1-213)
chain: MSVEEVSKKFEENVSVDDTTATPKTVLSDSAHFDVKHPLNTKWTLWYTKPAVDKSESWSDLLRPVTSFQTVEEFWAIIQNIPEPHELPLKSDYHVFRNDVRPEWEDEANAKGGKWSFQLRGKGADIDELWLRTLLAVIGETIDEDDSQINGVVLSIRKGGNKFALWTKSEDKEPLLRIGGKFKQVLKLTDDGHLEFFPHSSANGRHPQPSITL
Take B2: the binding entry is “binds” in [3]; “no binding” in [4]; “no binding” in assay [5]; “binds” in assay [6]; “no binding” in assay [7]; “no binding” in [8]. For the same molecule, the binding entry in assay [9] is reported as “binds”.
